Experimental data from ChEMBL document CHEMBL5606460, “ASAP - DENV-2 NS2B-NS3 protease fluorescence single point” (2024).
The whole screen tested about 2,000 compounds, of which about 110 (5.5%) showed an effect of 50% or more. This is one part of the list.

Target: Genome polyprotein (dengue virus type 2) (UniProt P29990)
[1] = Thailand/16681/1984, Concentration 25.0 uM, Number of replicates 1.0

## Cc1cc(CO)c2cccc(NC(=O)CCC3CCNCC3)c2n1
Thailand/16681/1984, Concentration 49.95 uM, Number of replicates 2.0, Standard deviation 0.01891415691253689 %
  inhibition: 99.7%
Thailand/16681/1984, Concentration 99.9 uM, Number of replicates 2.0, Standard deviation 0.03175377284289565 %
  inhibition: 99.6%

## CN(C)C[C@H](O)CN1CCN(C(=O)C2CCN(c3ccc(C=O)cc3)CC2)CC1
[1]
  inhibition: 8%

## CN(Cc1nc2ccccc2[nH]1)C(=O)c1cc2c(ccn2C)[nH]1
Thailand/16681/1984, Concentration 49.5 uM, Number of replicates 2.0, Standard deviation 1.6359874553985692 %
  inhibition: -0.57%
Thailand/16681/1984, Concentration 99.01 uM, Number of replicates 2.0, Standard deviation 2.1176510600017084 %
  inhibition: 1.32%
Thailand/16681/1984, Concentration 198.0 uM, Number of replicates 2.0, Standard deviation 2.126459055917485 %
  inhibition: 2.67%

## O=Cc1ccc(N2CCC(C(=O)Nc3cnc(Br)cn3)CC2)cc1
[1]
  inhibition: 12.3%

## Cc1nn(Cc2nnc(C(C)C)o2)cc1C1CCNCC1
Thailand/16681/1984, Concentration 49.5 uM, Number of replicates 2.0, Standard deviation 1.2271984598057826 %
  inhibition: -1.09%
Thailand/16681/1984, Concentration 99.01 uM, Number of replicates 2.0, Standard deviation 0.3137269789739955 %
  inhibition: -1.28%
Thailand/16681/1984, Concentration 198.0 uM, Number of replicates 2.0, Standard deviation 0.585185347191749 %
  inhibition: -1.14%

## COc1cc(Cc2cccc(OC)c2F)nc(N2CCNCC2)n1
Thailand/16681/1984, Concentration 49.5 uM, Number of replicates 2.0, Standard deviation 0.9629879376124778 %
  inhibition: -0.82%
Thailand/16681/1984, Concentration 99.01 uM, Number of replicates 2.0, Standard deviation 1.9852846675683946 %
  inhibition: 1.04%
Thailand/16681/1984, Concentration 198.0 uM, Number of replicates 2.0, Standard deviation 1.5415090145809722 %
  inhibition: 1.86%

## O=Cc1ccc(N2CCC(C(=O)NCCc3c(F)cccc3Cl)CC2)cc1
[1]
  inhibition: 13.3%

## O=Cc1ccc(N2CCC(C(=O)Nc3cccc(C(F)(F)F)c3F)CC2)cc1
[1]
  inhibition: 12.1%

## c1ccc2c(CN3CCCCC3)c[nH]c2c1
Thailand/16681/1984, Concentration 49.5 uM, Number of replicates 2.0, Standard deviation 0.6434272763588318 %
  inhibition: -4.49%
Thailand/16681/1984, Concentration 99.01 uM, Number of replicates 2.0, Standard deviation 1.2530364272347043 %
  inhibition: -2.99%
Thailand/16681/1984, Concentration 198.0 uM, Number of replicates 2.0, Standard deviation 1.3117724439068803 %
  inhibition: -1.23%

## O=Cc1ccc(N2CCC(C(=O)NCC3(c4ccccc4F)CCCC3)CC2)cc1
[1]
  inhibition: 0.197%

## NC(=O)[C@H](Cc1ccc(O)cc1)NC(=O)C1CCN(c2ccc(C=O)cc2)CC1
[1]
  inhibition: 14%

## OB(O)c1cccc(-c2noc(Cn3cnc4c3CCCC4)n2)c1
Thailand/16681/1984, Concentration 49.5 uM, Number of replicates 2.0, Standard deviation 17.807835519429947 %
  inhibition: 6.31%
Thailand/16681/1984, Concentration 99.01 uM, Number of replicates 2.0, Standard deviation 4.767493705751508 %
  inhibition: -7.68%
Thailand/16681/1984, Concentration 198.0 uM, Number of replicates 2.0, Standard deviation 0.9544911645628179 %
  inhibition: -1.69%

## COc1cc(Cc2ccnc(N3CCNCC3)c2)nc(N2CCNCC2)n1
Thailand/16681/1984, Concentration 49.5 uM, Number of replicates 2.0, Standard deviation 0.5475245881629303 %
  inhibition: -0.683%
Thailand/16681/1984, Concentration 99.01 uM, Number of replicates 2.0, Standard deviation 0.6079373329094152 %
  inhibition: -0.3%
Thailand/16681/1984, Concentration 198.0 uM, Number of replicates 2.0, Standard deviation 0.08599297366005029 %
  inhibition: 1.2%

## O=Cc1ccc(N2CCC(C(=O)NCCNC(=O)c3ccccc3Cl)CC2)cc1
[1]
  inhibition: 13.9%

## Cc1nn([C@@H](C)c2nnnn2C2CC2)cc1C1CCNCC1
Thailand/16681/1984, Concentration 49.5 uM, Number of replicates 2.0, Standard deviation 0.5100215426412393 %
  inhibition: -0.77%
Thailand/16681/1984, Concentration 99.01 uM, Number of replicates 2.0, Standard deviation 0.6373004179667614 %
  inhibition: -0.407%
Thailand/16681/1984, Concentration 198.0 uM, Number of replicates 2.0, Standard deviation 0.7686558471157346 %
  inhibition: 0.423%

## Cn1nccc1C1CCN(Cc2c[nH]c3ccccc23)CC1
Thailand/16681/1984, Concentration 49.5 uM, Number of replicates 2.0, Standard deviation 0.06061551323467077 %
  inhibition: 0.129%
Thailand/16681/1984, Concentration 99.01 uM, Number of replicates 2.0, Standard deviation 0.20163937411430433 %
  inhibition: 1.16%
Thailand/16681/1984, Concentration 198.0 uM, Number of replicates 2.0, Standard deviation 0.8816052707337766 %
  inhibition: 1.64%

## COc1cccc(CCNC(=O)C2CCN(c3ccc(C=O)cc3)CC2)c1
[1]
  inhibition: 0.237%

## Cc1cccc(OC2CN(C(=O)C3CCN(c4ccc(C=O)cc4)CC3)C2)c1
[1]
  inhibition: 13.8%

## CC1(C)C[C@@](C)(CNC(=O)c2cnc[nH]2)CN1C(=O)c1ccc2[nH]nnc2c1
Thailand/16681/1984, Concentration 49.5 uM, Number of replicates 2.0, Standard deviation 1.241999136987217 %
  inhibition: -0.502%
Thailand/16681/1984, Concentration 99.01 uM, Number of replicates 2.0, Standard deviation 2.0572991963778975 %
  inhibition: -1.12%
Thailand/16681/1984, Concentration 198.0 uM, Number of replicates 2.0, Standard deviation 0.660730470085805 %
  inhibition: -0.351%

## O=Cc1ccc(N2CCC(C(=O)N(Cc3ccncc3)C[C@H]3CCCO3)CC2)cc1
[1]
  inhibition: 13%

## NCc1cccc(NC(=O)[C@H]2CCN(C(=O)OCc3ccccc3)C2)c1
Thailand/16681/1984, Concentration 49.5 uM, Number of replicates 2.0, Standard deviation 1.9221944810499825 %
  inhibition: -1.99%
Thailand/16681/1984, Concentration 99.01 uM, Number of replicates 2.0, Standard deviation 1.6664051520702452 %
  inhibition: -1.6%
Thailand/16681/1984, Concentration 198.0 uM, Number of replicates 2.0, Standard deviation 2.955416090340052 %
  inhibition: -1.98%

## CCc1ccc(CN(CC(C)C)C(=O)C2CCN(c3ccc(C=O)cc3)CC2)cc1
[1]
  inhibition: 13.3%

## O=Cc1ccc(N2CCC(C(=O)NCC3CCC(C(F)(F)F)CC3)CC2)cc1 (centres undefined)
[1]
  inhibition: 12.8%
